From the supplement of paper PMC3334620
The full ranking holds about 33,000 sequences; the median of “E-score (-0.5 to 0.5)” is about -0.012, and the highest 2% start at about 0.27. The list shows a part of the results.

Each sequence was assayed against T1, Vhr1 (UniProt P40522) (assay: PBM E-score (8-mer binding enrichment) (E-score (-0.5 to 0.5)); higher = stronger / more preferred TF binding; most listed sequences are background and not binding sites). Details: protein concentration: 200 nM; construct: GST-full length.
T1 sequence: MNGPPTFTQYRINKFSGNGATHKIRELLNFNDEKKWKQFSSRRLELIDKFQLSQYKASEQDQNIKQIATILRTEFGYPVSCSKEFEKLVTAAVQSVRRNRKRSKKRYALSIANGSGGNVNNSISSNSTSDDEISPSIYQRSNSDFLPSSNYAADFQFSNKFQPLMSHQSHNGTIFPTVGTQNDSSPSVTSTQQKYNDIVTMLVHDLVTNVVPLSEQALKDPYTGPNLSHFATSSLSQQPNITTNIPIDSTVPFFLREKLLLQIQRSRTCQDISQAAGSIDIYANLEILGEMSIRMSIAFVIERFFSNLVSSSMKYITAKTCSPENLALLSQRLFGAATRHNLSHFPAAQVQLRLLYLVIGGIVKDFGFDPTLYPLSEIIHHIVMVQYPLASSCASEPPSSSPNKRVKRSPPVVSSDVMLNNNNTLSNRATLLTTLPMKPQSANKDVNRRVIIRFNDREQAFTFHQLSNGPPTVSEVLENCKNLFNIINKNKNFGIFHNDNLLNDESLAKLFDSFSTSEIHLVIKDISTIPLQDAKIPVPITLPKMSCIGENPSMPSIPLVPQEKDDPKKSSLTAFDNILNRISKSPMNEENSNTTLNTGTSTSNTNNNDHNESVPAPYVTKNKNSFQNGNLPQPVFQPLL
How it was run: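 Each ungapped eight-base word and its reverse complement, pooled, received an E-score from the Universal PBM Analysis Suite. Underlying scans, normalised with masliner, recorded fluorescent anti-GST bound to GST-tagged yeast transcription factors. These were applied at about 100-200 nM to universal all-10-mer Agilent arrays double-stranded by primer extension.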

Sequence	PBM E-score
GTGAGACA	0.219
ATAGGAAA	-0.0157
AGTCCTTC	-0.00782
ATAATTTC	-0.169
GCTCCTCA	-0.363
AGTCAGTA	0.323
CAGGCGAC	0.132
AGTGTGGG	0.137
GGCGATTA	0.0328
AGCAAAGG	0.103
AATGCTAA	-0.153
ACGCAGAG	-0.0512
GGTTAAGA	-0.14
GGTGAAAC	-0.0767
TCAGATCA	-0.113
GTACGAGA	-0.1
ACATGACC	0.187
AGTAAGAC	0.0235
GAAACTCC	-0.211
CTTTTATC	-0.163
ATTTCGAA	-0.148
CTTGTCCC	-0.0264
GTAGTACA	0.112
ATCACGAT	0.077
ACGCTAAG	-0.277

Sequence	PBM E-score
GGACAGGA	-0.0587
ATCGAAGG	0.0179
GTGTGAAA	0.0762
AACTTGAG	-0.305
ATGTGCTA	0.0865
GTCCCACA	0.00909
AGTAACTC	0.118
CATCCACA	0.197
CGACCATC	0.0193
CTATCTGA	-0.0105
GCCGTCGC	0.0786
TAATCTGA	0.0599
ACGCTTTA	-0.222
CGATTTCC	-0.0181
CAGGTCAC	-0.132
GGCAGATA	-0.0539
CCCACCGA	0.251
ATTATATC	0.0605
GAGCCCAA	0.0463
CATGCACC	0.0599
CTCGAGTC	0.235
ATGGAGAC	0.245
CGGTATTC	0.122
AAAGTTAT	-0.0323
CCAGATAG	0.0219

Sequence	PBM E-score
GGTATGAA	0.0689
GGGTTGCA	0.00766
AAGATTGC	-0.0621
CTGCGTGA	0.13
AGCAAATA	-0.0751
GGCTCTAA	-0.0817
CAAGGGTC	-0.267
CGTAACGC	0.00664
AGGTCAAG	-0.0718
CCCGCTTA	0.0568
GCAGCTCC	-0.0608
CAGCCATG	0.175
GTTGCGTA	0.0499
CGAAATAC	0.0866
AAGCTATA	-0.235
ATCTCGTA	-0.0788
AACGGAGT	0.258
ACGTAAGC	-0.205
CGAGGTGC	-0.00096
GCTAGCTA	-0.277
GGTTAGAA	-0.0266
TACTAGAA	0.0195
ACAGATTA	-0.104
AGGATGCC	-0.164
AGTAGAAC	-0.186

Sequence	PBM E-score
ACCTTAGA	-0.13
AGAAGCTG	-0.0119
AGCATTCG	-0.0588
ATCATAAC	0.24
GGATCTTA	0.063
CTAGAAGC	-0.0479
CCAGTAGA	0.0303
TATCCCGA	0.107
CAGGTCTC	-0.105
CAAAAAGC	0.0105
CGCGCGGC	0.215
ATCTTAAC	-0.0469
ATTGTCCA	-0.174
AACAATTC	-0.0492
AGGTTTAG	-0.107
AGTATAAC	-0.154
CAGGGCCG	-0.0574
ATTGCTGC	-0.0506
CAACCCTC	-0.0363
GGTTAACA	0.118
CCCGGCTA	-0.104
CTATTAAA	-0.0212
CCTGGCAC	-0.193
AATTAGTG	0.215
GAATCCCA	0.111

Sequence	PBM E-score
TCGTTCAA	-0.0723
AATGGTGC	0.0267
AGGGGGGA	0.0123
ATTCTTCA	-0.0725
CACTGGGA	0.0236
TAGTTCCA	-0.0228
AATATCTG	-0.0925
CTGATGTC	0.0811
ACTGAACC	0.0556
AACGGCGA	0.0691
GGGCATCA	0.0106
CGGTACAC	-0.00878
GACTGATA	0.13
AGCTCCGC	-0.0601
AACAAGAC	0.0255
ACTAACGC	0.0384
GAGCGTCC	-0.218
AATGGACG	0.0574
AGAGTCGC	0.338
ACTCCTAG	-0.0528
ATGACACC	0.0744
TCGGAACA	0.041
GGGGCTGA	-0.0525
ATCGATTA	0.122
GCACTACA	-0.0412

Sequence	PBM E-score
ACGTATCT	-0.00189
CCAATGCC	-0.247
GAAACCGC	0.159
AATGTTGG	-0.0754
ATTTAACG	-0.165
AAGGGCCT	-0.174
CGTAGCCC	0.0557
AGTGTCAT	0.194
AAGATAAA	-0.126
GCTTCACC	-0.0739
CTCATCAG	0.312
AGGACCGA	0.0357
CAGCGTGA	0.105
AGGATTTA	-0.0327
ATGTTTAG	0.043
TCTCCCAA	-0.0937
AAGCGGTA	-0.0247
ACGCGAGG	-0.113
CCTCTATC	-0.13
ACTATGGC	0.163
AGGTTTGC	0.0194
GGTGCGCA	0.0828
ACAGATGT	0.0935
GCGCGCGA	0.185
ACTTGGAG	-0.0624

Sequence	PBM E-score
AGTCGACT	0.33
GACGAAAC	-0.0593
ACATTCCC	-0.00322
AGTGTGGA	-0.0588
ATTCGACG	0.148
ATACCCAC	0.176
TATTCAAA	-0.0062
CTTCGAAG	-0.178
GATCGTGC	0.135
GAAAAGCA	-0.149
CACCAGAC	0.309
AACGGTAG	-0.0451
GCACTGGC	-0.0876
ATGCTTAC	-0.0969
CATGCGAC	0.147
CAAATTTA	-0.135
ACTCGTCC	0.122
GAGCACAA	0.0362
CCGCCGCC	0.183
GCAAGCAA	-0.0657
AATTGGAG	0.0101
ATCCTCAG	0.0653
CGCCTCGA	0.0789
AACAAAGC	0.0625
ATCTTGTG	-0.0506

Sequence	PBM E-score
AAGGAAGT	0.0312
CATAACCG	0.0778
CCCCGGCC	-0.0543
CCACCGCA	0.0143
TACATTCA	-0.0891
TACAGACA	0.0619
GGTTTTAC	-0.214
CCTTCCGA	-0.0757
TGACGACA	0.0278
CCCGCGCA	0.24
ACGCAAAA	-0.0826
CCCCTACA	-0.15
AGTTTCAT	0.15
GCAGCATA	0.072
ACAAATCG	0.0133
AAGATAGG	-0.136
AGCATATG	0.0295
ATTGGGGC	-0.126
AAGGCCCG	-0.328
GCTTCTGA	-0.0878
AGACATGA	0.227
GGAACTTA	-0.231
AAGAGCGT	-0.129
ATTCACAC	0.157
GCTACGCA	-0.00533

Sequence	PBM E-score
GCGATGCC	-0.0391
GTGAGCAA	-0.019
CCTAGGAC	-0.256
GAGTCAGC	0.476
CCCCTCAC	0.17
ACAGGGAC	-0.138
CTCCGTGC	0.0278
TAAACCCA	0.112
CTTATCGA	0.0185
AGCTCCAT	-0.0874
GGTATATA	0.207
ACACTATA	0.152
CATGAGGC	-0.159
GTCTATAA	0.0361
ATCAACAG	0.0493
AGATAGAA	-0.309
AGCCCTAC	-0.108
GTGTTGCA	0.135
CAATAGCG	0.148
